Measured values as given in PubChem BioAssay AID624172 (National Center for Advancing Translational Sciences (NCATS), 2012).
In all, about 380,000 compounds went through this assay and about 25 (0.007%) were called active. The shares of active, inactive and inconclusive entries below differ from those in the screen. Calls follow the shape of the dose curve; as a rule, active = well fitted activation curve with a large enough effect; inconclusive = small, poorly fitted or top-dose-only effect; inactive = no such curve, though single readings can be large or run the other way. Potencies of inconclusive entries are left out as doubtful fits.
For activation in this document: % of control where 0% means no effect.
Potency is read from the fitted curve at half-maximal effect; tags tell the direction and shape of the fitted curve.

What follows are compounds tested against Glucagon-like peptide 1 receptor (Homo sapiens) (UniProt P43220) (assay: qHTS of GLP-1 Receptor Agonists). Settings: HEK293 GLP-1R CRE-luciferase, luminescence, 4-6 h, cells express a hypersensitive GLP-1R form; activation: at 45.6 µM (top of the series) unless noted.
UniProt P43220, sequence (P43220 whole entry, looked up): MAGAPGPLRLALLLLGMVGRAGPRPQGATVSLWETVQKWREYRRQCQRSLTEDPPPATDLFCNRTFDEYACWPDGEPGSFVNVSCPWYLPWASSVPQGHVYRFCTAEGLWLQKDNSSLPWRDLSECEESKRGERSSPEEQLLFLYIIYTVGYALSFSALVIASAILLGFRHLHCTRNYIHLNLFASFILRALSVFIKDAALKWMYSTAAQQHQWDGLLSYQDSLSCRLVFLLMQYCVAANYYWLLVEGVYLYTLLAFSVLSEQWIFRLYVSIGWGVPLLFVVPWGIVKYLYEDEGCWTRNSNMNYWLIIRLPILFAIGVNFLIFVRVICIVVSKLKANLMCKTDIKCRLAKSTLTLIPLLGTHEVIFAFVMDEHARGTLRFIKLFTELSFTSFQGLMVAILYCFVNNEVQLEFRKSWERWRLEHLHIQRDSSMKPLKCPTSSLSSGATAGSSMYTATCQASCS
`COc1ccc(-c2nc(C#N)c(NC(C)c3ccccc3)o2)cc1OC` (configuration not stated) was tested, and the Potency was inconclusive [activator, partial curve].
`COc1ccc(S(=O)(=O)N2CCc3ccccc32)cc1C(=O)Nc1cccnc1` was tested, and the Potency was active: 10 µM.
With `Cc1ccccc1NC(=O)Nc1ccc2c(c1)OCO2` the “activation” value was inactive: -1.43%.
With `O=C(Nc1ccccc1)OCCOc1ccccc1Br` the Potency was inconclusive [activator, single point].
With `COC(=O)c1ccc(Cn2nc(-c3cc(C)ccc3C)ccc2=O)cc1` the Potency was inconclusive [activator, partial curve, poor fit].
`O=c1c(Cc2ccc(F)cc2)c(O)ccn1Cc1cccc(Cl)c1` was tested, and the “activation” value was inactive: -10%.
In the case of `CCN(CC(=O)Nc1cccc(OC)c1)c1ncnc2sc(C)c(C)c12`, the Potency is reported as inconclusive [activator, partial curve, poor fit].
For `COc1ccc(COC(=O)c2cc([N+](=O)[O-])ccc2N2CCOCC2)cc1F`, the Potency was inconclusive [activator, partial curve, poor fit].
In the case of `CS(=O)c1ccccc1-c1nc(-c2cccc(Cl)c2)no1` (configuration not stated), the “activation” value is reported as inactive: 7.11%.
With `CC(C)(C)Nc1nc2cc([N+](=O)[O-])ccc2o1` the “activation” value was inactive: -1.46%.
`NS(=O)(=O)c1cccc(NC(=O)Nc2ccccc2)c1` was tested, and the activation was inconclusive: 64.2% [activator].
In the case of `Cc1cc(C)c(C#N)c(SCC(=O)Nc2cc(C)on2)n1`, the Potency is reported as inconclusive [activator, partial curve, poor fit].
With `CCN1C(=O)CSc2ccc(C(=O)NCc3ccccc3OC)cc21` the Potency was inconclusive [activator, partial curve, poor fit].
With `O=C(C=Cc1ccccc1)CC(c1ccccc1)N1CCOCC1` (configuration not stated) the “activation” value was inactive: -6.94%.
`O=C(NC1=CC(=O)c2ccccc2C1=O)c1ccccc1` was tested, and the Potency was inconclusive [activator, partial curve, poor fit].
For `Cc1cc(Cl)ccc1NC(=O)c1ccc2c(c1)OCO2`, the “activation” value was inactive: 2.33%.
In the case of `COC(=O)c1cc2ccccc2oc1=O`, the “activation” value is reported as inactive: -5.71%.
For `COc1ccc(CCN(C)C(=O)c2oc3ccccc3c2C)cc1OC`, the Potency was inconclusive [activator, single point].
With `COc1ccc(-c2sc3cc(OC)c(OC)cc3c2C#CCCO)cc1` the Potency was inconclusive [activator, single point].
For `COc1ccc(S(=O)(=O)N(C(=O)c2ccncc2)c2ccc3oc4c(c3c2)CCCC4)cc1`, the “activation” value was inactive: -14.1%.
For `O=C(N/N=C/c1cc(Cl)ccc1O)c1ccccc1Br`, the “activation” value was inactive: -5.08%.
With `COC(=O)c1ccc(C(=O)NC(=S)Nc2nc3c(s2)CC(C)CC3)cc1` (configuration not stated) the “activation” value was inactive: 0.401%.
